Among the data in article PMC12820563 are binding signal (RPM ratio (pull-down/input)) values, retold here.

The other results are listed elsewhere or left out. The list includes weakly bound sequences.

For the assay, the target named is T1, MBP-FoxP3dN (UniProt Q99JB6).
T1 sequence: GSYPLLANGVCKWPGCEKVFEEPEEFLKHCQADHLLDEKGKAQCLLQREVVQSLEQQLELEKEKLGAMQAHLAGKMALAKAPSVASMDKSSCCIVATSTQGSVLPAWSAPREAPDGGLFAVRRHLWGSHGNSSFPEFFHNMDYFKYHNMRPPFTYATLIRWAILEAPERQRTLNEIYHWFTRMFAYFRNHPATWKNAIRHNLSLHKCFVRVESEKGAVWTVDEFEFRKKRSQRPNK
As to the kind of experiment: PD-seq (MBP pull-down with sequencing). As to conditions: 20 mM Tris-HCl pH 7.5, 100 mM NaCl, 1.5 mM MgCl2, 0.4 uM protein, 0.1 uM dsDNA library, 30 min, room temperature, amylose pull-down; high values mean tight binding; double strand, one strand shown.
Turning to “GATGATTGTTCTCCCAGCTGATGAATTGCGCCGTTCGAGTAAACAAATTTTCCTAATCTTTCTGTTCAAGCGCCATCTAC”, the binding signal (RPM ratio (pull-down/input)) is 2.08.

Regarding “GATGATTGTTCTCCCAGCTGATGAATTTGCTGCCTCGAGTAAACAAATTTTCCTAATCTTTCTGTTCAAGCGCCATCTAC”, the binding signal (RPM ratio (pull-down/input)) amounted to 3.66.

Consider “GATGATTGTTCTCCCAGCTGATGAATTCACTGCATCGAGTAAACAAATTTTCCTAATCTTTCTGTTCAAGCGCCATCTAC”, for which the binding signal (RPM ratio (pull-down/input)) amounted to 0.871.

“GATGATTGTTCTCCCAGCTGATGAATTGGACGAATCGAGTAAACAAATTTTCCTAATCTTTCTGTTCAAGCGCCATCTAC”: the binding signal (RPM ratio (pull-down/input)) came to 0.195.

Regarding “GATGATTGTTCTCCCAGCTGATGAATTGAGCAATTCGAGTAAACAAATTTTCCTAATCTTTCTGTTCAAGCGCCATCTAC”, the binding signal (RPM ratio (pull-down/input)) is 3.79.

On to “GATGATTGTTCTCCCAGCTGATGAATTCTAACTCTCGAGTAAACAAATTTTCCTAATCTTTCTGTTCAAGCGCCATCTAC”, for which the binding signal (RPM ratio (pull-down/input)) was 0.418.

For “GATGATTGTTCTCCCAGCTGATGAATTGCCTTGCTCGAGTAAACAAATTTTCCTAATCTTTCTGTTCAAGCGCCATCTAC”, the binding signal (RPM ratio (pull-down/input)) is 0.647.

As to “GATGATTGTTCTCCCAGCTGATGAATTATCGGCTTCGAGTAAACAAATTTTCCTAATCTTTCTGTTCAAGCGCCATCTAC”, the binding signal (RPM ratio (pull-down/input)) was determined as 0.296.

Regarding “GATGATTGTTCTCCCAGCTGATGAATTACTAAGTTCGAGTAAACAAATTTTCCTAATCTTTCTGTTCAAGCGCCATCTAC”, the binding signal (RPM ratio (pull-down/input)) turned out to be 0.312.

With “GATGATTGTTCTCCCAGCTGATGAATTACCAGGCTCGAGTAAACAAATTTTCCTAATCTTTCTGTTCAAGCGCCATCTAC”, the binding signal (RPM ratio (pull-down/input)) was found to be 0.357.

Take “GATGATTGTTCTCCCAGCTGATGAATTTAAAGATTCGAGTAAACAAATTTTCCTAATCTTTCTGTTCAAGCGCCATCTAC”: the binding signal (RPM ratio (pull-down/input)) amounted to 0.274.

In the case of “GATGATTGTTCTCCCAGCTGATGAATTTTTGTTATCGAGTAAACAAATTTTCCTAATCTTTCTGTTCAAGCGCCATCTAC”, the binding signal (RPM ratio (pull-down/input)) was 2.29.

With “GATGATTGTTCTCCCAGCTGATGAATTGTGTGGATCGAGTAAACAAATTTTCCTAATCTTTCTGTTCAAGCGCCATCTAC”, the binding signal (RPM ratio (pull-down/input)) was found to be 2.21.

For “GATGATTGTTCTCCCAGCTGATGAATTCATTCTATCGAGTAAACAAATTTTCCTAATCTTTCTGTTCAAGCGCCATCTAC”, the binding signal (RPM ratio (pull-down/input)) was determined as 0.283.

Take “GATGATTGTTCTCCCAGCTGATGAATTCATCCTGTCGAGTAAACAAATTTTCCTAATCTTTCTGTTCAAGCGCCATCTAC”: the binding signal (RPM ratio (pull-down/input)) was 0.419.

For “GATGATTGTTCTCCCAGCTGATGAATTCTTAACGTCGAGTAAACAAATTTTCCTAATCTTTCTGTTCAAGCGCCATCTAC”, the binding signal (RPM ratio (pull-down/input)) was determined as 0.28.

In the case of “GATGATTGTTCTCCCAGCTGATGAATTACGACCATCGAGTAAACAAATTTTCCTAATCTTTCTGTTCAAGCGCCATCTAC”, the binding signal (RPM ratio (pull-down/input)) came out at 0.605.

Turning to “GATGATTGTTCTCCCAGCTGATGAATTGCTTTTGTCGAGTAAACAAATTTTCCTAATCTTTCTGTTCAAGCGCCATCTAC”, the binding signal (RPM ratio (pull-down/input)) came to 1.51.

With “GATGATTGTTCTCCCAGCTGATGAATTTGCCAGATCGAGTAAACAAATTTTCCTAATCTTTCTGTTCAAGCGCCATCTAC”, the binding signal (RPM ratio (pull-down/input)) was determined as 0.316.

Consider “GATGATTGTTCTCCCAGCTGATGAATTCGCTCATTCGAGTAAACAAATTTTCCTAATCTTTCTGTTCAAGCGCCATCTAC”, for which the binding signal (RPM ratio (pull-down/input)) worked out at 0.414.

Turning to “GATGATTGTTCTCCCAGCTGATGAATTGGTGTCATCGAGTAAACAAATTTTCCTAATCTTTCTGTTCAAGCGCCATCTAC”, the binding signal (RPM ratio (pull-down/input)) stood at 1.22.

For the sequence “GATGATTGTTCTCCCAGCTGATGAATTGATATGCTCGAGTAAACAAATTTTCCTAATCTTTCTGTTCAAGCGCCATCTAC”, the binding signal (RPM ratio (pull-down/input)) is 0.879.

With “GATGATTGTTCTCCCAGCTGATGAATTCTGCATCTCGAGTAAACAAATTTTCCTAATCTTTCTGTTCAAGCGCCATCTAC”, the binding signal (RPM ratio (pull-down/input)) is 6.75.

As to “GATGATTGTTCTCCCAGCTGATGAATTCTTGTGGTCGAGTAAACAAATTTTCCTAATCTTTCTGTTCAAGCGCCATCTAC”, the binding signal (RPM ratio (pull-down/input)) turned out to be 0.428.

Take “GATGATTGTTCTCCCAGCTGATGAATTGCAGAAATCGAGTAAACAAATTTTCCTAATCTTTCTGTTCAAGCGCCATCTAC”: the binding signal (RPM ratio (pull-down/input)) worked out at 0.529.

For the sequence “GATGATTGTTCTCCCAGCTGATGAATTGTGAACCTCGAGTAAACAAATTTTCCTAATCTTTCTGTTCAAGCGCCATCTAC”, the binding signal (RPM ratio (pull-down/input)) was 0.516.

On to “GATGATTGTTCTCCCAGCTGATGAATTAGGCGATTCGAGTAAACAAATTTTCCTAATCTTTCTGTTCAAGCGCCATCTAC”, for which the binding signal (RPM ratio (pull-down/input)) is 1.08.

Take “GATGATTGTTCTCCCAGCTGATGAATTAGAGAGGTCGAGTAAACAAATTTTCCTAATCTTTCTGTTCAAGCGCCATCTAC”: the binding signal (RPM ratio (pull-down/input)) worked out at 0.206.

With “GATGATTGTTCTCCCAGCTGATGAATTCCTAGGCTCGAGTAAACAAATTTTCCTAATCTTTCTGTTCAAGCGCCATCTAC”, the binding signal (RPM ratio (pull-down/input)) worked out at 0.188.

In the case of “GATGATTGTTCTCCCAGCTGATGAATTAAAGATATCGAGTAAACAAATTTTCCTAATCTTTCTGTTCAAGCGCCATCTAC”, the binding signal (RPM ratio (pull-down/input)) was determined as 0.318.

For the sequence “GATGATTGTTCTCCCAGCTGATGAATTACGATATTCGAGTAAACAAATTTTCCTAATCTTTCTGTTCAAGCGCCATCTAC”, the binding signal (RPM ratio (pull-down/input)) came out at 1.07.
